Read counts are not given, so values of variants with three or more changes are uncertain.
B1: LINE1-mini (parent)
chain: GGCAGAGCUCAACACAGCGUGGCAAAGUGGCUGUGGCUAGACUGCC

Variants of: B1
Assay: self-cleavage, relative activity (ratio to wild type); higher = more cleavage; in vitro, sequencing; the parent is a self-cleaving ribozyme

Variant	self-cleavage
A24G U28G G29C A39U	0.21
A24G U32C G33U U38A	0.03
A24G U34A C46U	0.04
A24U A25C A26U U34C	0.02
A24U A25C C45A	0.62
A24U A25C G29C C31U G44C	0.17
A24U A25C G30C	0.37
A24U A25C U28A	0.48
A24U A25G G36A	0.12
A24U A25U C31G C42G	0.09
A24U A25U G30A	1.97
A24U A25U U28G	0.23
A24U A26C U28A G35A G36U C37U	0.02
A24U A26G G29U	1.36
A24U A26U G27C C45G	0.07
A24U A39G C42A	0.26
A24U A41G C46A	0.23
A24U C45U C46A	0.66
A24U G27A C45U	1.17
A24U G27A G29A U32G C42A	0.01
A24U G27A G44A	1.16
A24U G27A U32G	0.1
A24U G29C A39C G40A	0.03
A24U G29U C46G	2.7

Variant	self-cleavage
A24U G29U G36U	0.04
A24U G30C G33C	0.03
A24U G30U A41U	0.52
A24U G30U C42U G44U	0.03
A24U G30U G33U G35U C37A A39G C46A	0.28
A24U G33A G44C	0.01
A24U G35A C37G C45A	0.04
A24U G35C C46U	0.05
A24U G35U A41C	0.06
A24U G35U C37A A39C C45A	0.03
A24U G36A A41C	0.09
A24U G36U U43G	0
A24U U28G G33C U38C C42G	0.01
A24U U32C C37A	0.16
A24U U34A G36A C45A	0.01
A24U U34C G36U G40C	0.05
A25C A26C G27U	0.82
A25C A26G G29C G30C	0.27
A25C A26G U28C	0.32
A25C A26U G27A G29U	0.59
A25C A26U G44U	0.08
A25C A39U C45A C46U	0.14
A25C C31A U38C	0.09
A25C C37A A41U G44U	0.07

Variant	self-cleavage
A25C C37U G40A	0.16
A25C C42A U43G	0.03
A25C C42G C45A C46U	0.01
A25C G27C G29A G35A G40C	0.05
A25C G27C G36U	0.05
A25C G27U C31U	0.14
A25C G29A G30U C31A U34A G40C	0.05
A25C G30A C42A	0.04
A25C G30C C31A	0.8
A25C G30U C37U	0.05
A25C G36A C45G C46G	0.03
A25C G40C U43A	0.02
A25C G40U C42U	0.04
A25C U28A U43A	0.01
A25C U28C A39U A41U C42G	0.04
A25C U28G A41C	0.05
A25C U43C C45G	0.06
A25G A26G C37U	0.05
A25G A26U G33A	0.1
A25G A39C C45G	0.03
A25G C31A G33A	0.02
A25G C31A U38A	0.03
A25G C31G G36U C42G C46A	0.02
A25G C31U A39G G40A U43C	0

Variant	self-cleavage
A25G C31U U38A	0.44
A25G C42G C46U	0.03
A25G G27U U34A G35A	0.04
A25G G29A U32A	0.01
A25G G29U G35C	0.01
A25G G29U U32C G35U U38A	0.02
A25G G30A C37A	0.08
A25G G30A G33C	0.05
A25G G30A G40U C45A	0.03
A25G G33C A39G	0.03
A25G G33C U38A C46A	0.03
A25G G35C C45U	0.06
A25G G36A C45U	0.15
A25G G36A U38C C45U	0.37
A25G G36C G44A	0.03
A25G G40U C45A	0.06
A25G G40U C45G	0
A25G G44U C46G	0.16
A25G U32G G35U	0.01
A25G U34A G36C	0.04
A25G U34C G44A C45U	0.28
A25G U38C A41G C42U	0.04
A25U A26G C31U	0.03
A25U A26G C31U A41G	0.04

Variant	self-cleavage
A25U A26G G40A	0.11
A25U A26U C31G A39U A41U	0.03
A25U A39G G40U C45A	0.07
A25U A39U A41U	0.87
A25U A39U C42G	0.02
A25U C31A G35C	0.01
A25U C31A U34G	0.07
A25U C31A U43C	0.21
A25U C31G C46G	0.05
A25U C31G U38G C45G	0.02
A25U C37A U38G	0.01
A25U C37U A41G	0.05
A25U G27A C45G	0.26
A25U G27A U28A C31A	0.81
A25U G27U A39C	0.25
A25U G27U C37U U38A	0.01
A25U G27U U43C	0.1
A25U G29A C37U	0.04
A25U G29A C46A	1.02
A25U G30U G40U	0.05
A25U G33A C37A	0.09
A25U G33A C37U C42A	0.04
A25U G33A U43A	0.13
A25U G35A G36U A41U	1.23

Variant	self-cleavage
A25U G40A C42G	0.02
A25U U28C C45A	0.26
A25U U32A C37U	0.08
A25U U34C C42A U43G	0.03
A25U U38A C42U C45U	0.03
A25U U38A G40A	0.16
A26C G27A A41U	0.24
A26C G27U U34C A39C	0.07
A26C G29A C31U	0.5
A26C G29A G30U	0.29
A26C G29A U32C C37A	0.1
A26C G29A U34A A41G	0.17
A26C G30U G36A	1.66
A26C G33A C42U U43A	0.05
A26C G33A G35C	0.04
A26C G33C U43A C45U	0.02
A26C G35C C37G	0.39
A26C G35C G40U	0.04
A26C G36A U38C	0.05
A26C U28C C37U	0
A26C U28C C45G	0.04
A26C U28G C45A	0.31
A26C U28G U38G	0
A26C U32A G33A A39C	0.1

Variant	self-cleavage
A26C U32G G40C	0.03
A26C U34A C46G	0.18
A26C U34C G35A U38A	0.05
A26G A41C G44U	0.02
A26G C31A G33A G36U C37G	0.17
A26G C31A G35U	0.42
A26G C31G U43A	0.03
A26G C37A G44C	0.05
A26G C45G C46A	0.13
A26G G27C G35A C37U	0.11
A26G G27U C37U	0.05
A26G G29C C42G	0
A26G G29U G40C C45A	0.01
A26G G29U U38A	0.96
A26G G30C C37A U38C	0.05
A26G G30C U34A	0.03
A26G G33A G44A	0.05
A26G G33C A39C C42G	0.03
A26G G33U G35U	0.14
A26G G33U G40A	0.03
A26G G35U C37G	0.07
A26G G36C A41U	0.4
A26G G40U A41G C45G	0.06

From the RNAGym collection of RNA variant scans (doi:10.7554/elife.90254)
